Data from PubChem BioAssay AID1508624 (National Center for Advancing Translational Sciences (NCATS), 2021).
The campaign covered roughly 48,000 compounds. About 120 (0.25%) were called active. Not shown: some 4% with an inconclusive outcome. Calls come from the whole dose curve; as a rule, active = well fitted activation curve with a large enough effect; inconclusive = small, poorly fitted or top-dose-only effect, or another doubt; inactive = no such curve, though single readings can be large or run the other way. This is one part of the list.

Assay: Primary qHTS for Identification of Small Molecule Activators of Huntingtin-Antisense Promoter Activity; note: nearly all actives have a fitted effect of over 55% in size
Conditions: HEK293 HTT-AS promoter firefly luciferase reporter, 24 h; series mostly up to 57.5 µM; activity change, positive = activation: at the top concentration
In short: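 Quantitative HTS used concentration series of up to 57.5 uM final on HEK293 luciferase reporter cells, 24 h at 37 degrees C. Readout was Dual-Glo firefly luminescence.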

Activity change, positive = activation, inactive:
COc1cccc2c1C(=O)c1c(O)c3c(c(O)c1C2=O)C[C@@](O)(C(=O)CO)C[C@@H]3O[C@H]1C[C@H](N)[C@@H](O)[C@H](C)O1 -44.9%
CC(C)CC(=O)NCC(c1ccc2c(c1)OCO2)N1CCN(c2ccccc2)CC1 (stereo not given) -11.6%
COc1ccccc1CN1CCC(CNC(=O)c2cnn(-c3ccccc3Cl)c2C2CCN(C(=O)OC(C)(C)C)CC2)CC1 -13.5%
CCC(=O)Nc1ccc(Cl)c(-c2nc3ccccc3[nH]2)c1 -11.2%
Cc1ccc(-n2ncc3c(N4CCCCCC4)ncnc32)cc1Cl -79.6%
Cc1cccc(NC(=O)c2ccc(-n3c(C)nnc3C)cc2)c1 5.07% [at 11.5 µM, percent change from vehicle, -100% = no light]
COc1ccccc1CNC(=O)CCc1c(C)nc2cc(-c3ccc(Cl)cc3)nn2c1C -69.4%
CCOC(=O)c1c(NC(=O)c2ccc(OCC)c(Br)c2)sc2c1CCCC2 -9.66%
Cc1cc2oc(=O)c(CC(=O)NCCc3ccccc3F)c(C)c2c2occ(C(C)(C)C)c12 -6.54%
CC(=O)Nc1cc(C(=O)NCc2ccc(F)cc2)ccc1Sc1ccc(F)cc1 -29.3%
COc1c(N2C[C@@H]3CCCN[C@H]3C2)c(F)cc2c(=O)c(C(=O)O)cn(C3CC3)c12 0.58%
CCCCN(C(=O)C1CCC(CNS(=O)(=O)c2cccc3nsnc23)CC1)c1ccccc1 (stereo not given) -31.9%
CC(=O)Nc1ccc(NC(=O)CN(C)S(=O)(=O)c2ccc3c(c2)CCCC(=O)N3)cc1 -6.29%
O=c1c2cc3c(cc2nc2sc(Nc4cccc([N+](=O)[O-])c4)nn12)OCO3 -7.73%
Cc1ccc(C)c(S(=O)(=O)c2nnn3c2nc(N2CCN(C)CC2)c2sccc23)c1 -7.18%
COc1ccc(CC(=O)NCC(c2cccs2)S(=O)(=O)c2ccc(F)c(C)c2)cc1 (stereo not given) 7.27%
Cc1cccc(CN2CCC(CNC(=O)Cn3ncc4c([nH]c5ccc(C)cc54)c3=O)CC2)c1 -11.1%
COc1ccccc1C(=O)Nc1nc2n(n1)C(c1ccc(F)cc1)C=C(c1ccc(Cl)cc1)N2 (stereo not given) -37.7%
CCOC(=O)c1cc(S(=O)(=O)NCc2ccc(Cl)cc2)[nH]n1 -19.6%
Cc1ccccc1CSc1ncc(Cl)c(C(=O)Nc2nc3ccc(F)cc3s2)n1 -14.4%
COc1ccccc1C(=O)N/C(=C\c1cn(S(=O)(=O)N(C)C)c2ccccc12)C(=O)NCCCn1ccnc1 -8.38%
CCc1ccc(CNC(=O)C2CCCN(c3nnc(C)c4c(C)n(-c5ccccc5)nc34)C2)cc1 (stereo not given) -15%
Cc1cc2n(n1)CCC(=O)N2Cc1ccc(C(=O)Nc2cc(Cl)ccc2C)cc1 -35.9%
COc1ccccc1C(=O)Nc1ccc2nc(SCC(=O)N3CCCc4ccccc43)sc2c1 -23%
COc1ccc(OC)c(NC(=O)C2CCCN(S(=O)(=O)c3ccc4c(c3)CCCC(=O)N4)C2)c1 (stereo not given) -20.9%
COc1ccccc1NC(=O)C1=C(C)Nc2nc(SC)nn2C1c1ccccc1Cl (stereo not given) 10.3%
COc1cc(-c2nc(SCC(=O)Nc3ccc4c(c3)OCO4)c(-c3ccccc3)[nH]2)cc(OC)c1OC -6.95%
COc1ccc(-c2nnc(SCC(=O)N3CCC(C)CC3)o2)cc1 0.151%
COc1ccc(-c2nnc(C3CCN(S(=O)(=O)c4cccc(Cl)c4)CC3)o2)cc1 -35.6%
COc1ccccc1CNC(=O)CSc1ncc(S(=O)(=O)c2ccc(C)c(Cl)c2)c(=O)[nH]1 10.4%
CNC(=O)C1CCC(Cn2c(=O)c3sccc3n(CC(=O)N3CCCC(C)C3)c2=O)CC1 (stereo not given) -11.9%
CCCN(CCC)CCc1cccc2c1CC(=O)N2 -1.17%
COCCCNC(=O)C1CCN(Cc2cc3ccccc3n2Cc2cccc(C)c2)CC1 -21.7%
O=S(=O)(c1ccc(F)cc1)N1CCC(Oc2cccc(C(F)(F)F)c2)CC1 -28.2%
COc1c(Cl)cc(Cl)cc1C(=O)Nc1cccc(-c2nc3ccccc3o2)c1C -2.01%
CCc1ccccc1NC(=O)c1cn(C)c(=O)c2ccccc12 -5.79%
COc1ccc(S(=O)(=O)N2Cc3ccccc3CC2C(=O)Nc2ccc(C)cc2)cc1OC (stereo not given) 0.878%
COc1ccc(CCNC(=O)CCCn2c(=O)c3ccccc3n(Cc3ccccc3)c2=O)cc1OC -36.2%
COc1cccc(CNC(=O)C(=O)NCC(c2cccs2)S(=O)(=O)c2ccccc2)c1 (stereo not given) -30%
C/C=C/c1ccc(OC)cc1 -0.378%
Cc1cccc(CCNC(=O)c2cc(S(=O)(=O)N3CCCCC3)c[nH]2)c1 -18.5%
Cc1cccc(N2CCN(C(=O)c3ccc4c(c3)N(Cc3ccccc3)C(=O)c3ccccc3S4(=O)=O)CC2C)c1 (stereo not given) -28.5%
CCC(C)CCCCC(=O)N[C@@H](CCN)C(=O)NC(C(=O)N[C@H](CCN)C(=O)N[C@@H]1CCNC(=O)C([C@@H](C)O)NC(=O)[C@@H](CCN)NC(=O)[C@@H](CCN)NC(=O)[C@@H](CC(C)C)NC(=O)[C@H](Cc2ccccc2)NC(=O)[C@H](CCN)NC1=O)[C@@H](C)O (stereo not given in full) -4.13%
Cc1c2cnn(-c3ccccc3)c(=O)c2c(C)n1C(C)C(=O)Nc1ccccc1C(F)(F)F (stereo not given) -23.7%
CCOC(=O)CC(NC(=O)Cn1nnc(-c2ccccc2Cl)n1)c1ccc(OC)cc1 (stereo not given) -14.7%
Cc1ccc(C)c(NC(c2ccccc2)c2nnc(-c3ccccc3F)o2)c1 (stereo not given) 29.7%
Clc1ccc(CCNc2nc3cc(Cl)c(Cl)cc3n3cnnc23)cc1 -2.16%
COc1ccc(CCN2C(=O)N(c3cccc(C)c3)C(=O)C2CC(=O)Nc2ccccc2)cc1OC (stereo not given) -20.5%
CCN(CC)c1ccc2cc(-c3nc4sc5c(c4c(=O)[nH]3)CCC(C(C)(C)C)C5)c(=O)oc2c1 (stereo not given) -6.72%
COc1cccc(NC(=O)c2c(C)oc3nc(C)nc(N4CCCC4)c23)c1 -15%
COc1ccc(CC(=O)Nc2nc3c(s2)CCCC3)cc1 -16.1%
CCC(=O)N1CCc2cc(S(=O)(=O)CCC(=O)N3CCN(c4cccc(C)c4C)CC3)ccc21 -4.34%
Cc1ccc2c(c1)N(C(=O)CCC(=O)NCc1cccc(F)c1)CC(C)O2 (stereo not given) -9.07%
Cc1cccc(C)c1NC(=O)c1cc(S(=O)(=O)N2CCc3ccccc3C2)ccc1F -32.4%
O=C(c1ccc(Cl)cc1)n1nc(-c2cccnc2)nc1NCc1ccc(F)cc1 3.47%
